In all, about 310,000 compounds went through this assay and about 2,200 (0.71%) showed an effect of 50% or more. The effect is printed as a negative number. This is one part of the list.

human ether-à-go-go-related gene (hERG) potassium channel, sequence (Q12809 whole entry, looked up): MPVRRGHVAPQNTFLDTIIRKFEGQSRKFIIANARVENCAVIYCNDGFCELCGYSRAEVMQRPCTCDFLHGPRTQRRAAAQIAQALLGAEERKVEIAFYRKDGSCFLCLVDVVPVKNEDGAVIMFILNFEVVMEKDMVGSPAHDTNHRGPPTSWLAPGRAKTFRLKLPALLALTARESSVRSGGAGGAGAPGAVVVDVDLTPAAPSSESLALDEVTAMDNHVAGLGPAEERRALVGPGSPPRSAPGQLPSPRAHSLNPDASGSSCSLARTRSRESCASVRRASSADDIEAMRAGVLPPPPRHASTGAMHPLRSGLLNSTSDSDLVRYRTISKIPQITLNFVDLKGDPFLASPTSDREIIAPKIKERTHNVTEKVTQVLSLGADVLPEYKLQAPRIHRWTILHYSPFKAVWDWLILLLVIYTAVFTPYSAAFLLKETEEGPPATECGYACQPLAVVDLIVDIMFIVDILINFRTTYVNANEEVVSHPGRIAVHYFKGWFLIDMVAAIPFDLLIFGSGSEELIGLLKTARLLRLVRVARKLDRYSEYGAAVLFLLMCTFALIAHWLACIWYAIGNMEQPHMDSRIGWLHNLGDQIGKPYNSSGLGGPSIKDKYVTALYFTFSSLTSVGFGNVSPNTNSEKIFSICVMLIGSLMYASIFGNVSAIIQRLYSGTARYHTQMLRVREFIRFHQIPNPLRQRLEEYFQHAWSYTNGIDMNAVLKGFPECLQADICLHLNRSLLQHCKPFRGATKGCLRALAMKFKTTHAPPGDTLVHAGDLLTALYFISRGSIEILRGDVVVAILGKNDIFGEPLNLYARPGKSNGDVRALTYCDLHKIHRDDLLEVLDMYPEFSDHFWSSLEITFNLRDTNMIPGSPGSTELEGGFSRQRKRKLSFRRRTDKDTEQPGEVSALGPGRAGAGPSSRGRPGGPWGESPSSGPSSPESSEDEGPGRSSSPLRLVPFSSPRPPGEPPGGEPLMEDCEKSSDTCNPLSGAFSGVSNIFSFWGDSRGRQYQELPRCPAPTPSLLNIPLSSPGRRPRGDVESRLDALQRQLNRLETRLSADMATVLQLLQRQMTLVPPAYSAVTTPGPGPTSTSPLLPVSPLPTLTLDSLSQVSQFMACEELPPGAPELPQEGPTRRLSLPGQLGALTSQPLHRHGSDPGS

This experiment has as its target human ether-à-go-go-related gene (hERG) potassium channel (human, UniProt Q12809). Briefly: primary screen, population patch clamp on CHO cells stably expressing hERG.
Turning to `O=C(COc1ccc2ccccc2c1)N1CCN(C(=O)c2ccco2)CC1`, the “hERG current change (%, negative = inhibition) at 1uM” value is recorded as 4.23%.

As to `CC1(C)N=C(N)NC(Nc2ccccc2Cl)=N1`, the “hERG current change (%, negative = inhibition) at 1uM” value amounted to 13.7%. The result for `CCn1cc(C(=O)NCc2cccs2)c(=O)c2cc(S(=O)(=O)N3CCOCC3)ccc21` reads 2.67%; that for `O=C(CCC(=O)N(CC(=O)NC1CCCCC1)Cc1cccs1)Nc1ccccn1`, 8.18%. The result for `Cc1ccc(-c2ccc(S(=O)(=O)N3CCN(C)CC3)cc2)cc1` reads -5.84%.

`CC1CCN(C(=O)C(Cc2ccccc2)NS(=O)(=O)c2ccc3c(c2)oc(=O)n3C)CC1` (stereo not drawn): the “hERG current change (%, negative = inhibition) at 1uM” value is listed as 7.67%. In the case of `Cc1ccc(/C=C2\SC(=S)N(CCC(=O)NNC(=O)c3ccc(O)cc3)C2=O)cc1`, the “hERG current change (%, negative = inhibition) at 1uM” value is 15.8%. Turning to `Cc1cc(C(=O)N(C)CC2CCCN(CCc3ccc(F)cc3)C2)c(C)o1` (stereo not drawn), the “hERG current change (%, negative = inhibition) at 1uM” value is on record as -71.6%. For the molecule `Cc1ccc(S(=O)(=O)NCCOc2nc(N(C)C)nc(N3CCOCC3)n2)cc1`, the “hERG current change (%, negative = inhibition) at 1uM” value was 6.14%. The result for `Cc1cccc(NC(=O)c2cc(N3CCOCC3)nc3ccccc23)c1` reads 3.26%; that for `COc1ccc(C(=O)NC(C)c2ccc(-n3ccnc3)cc2)c(OC)c1OC` (stereo not drawn), -21.2%. The value for `O=C(CC(=O)Nc1nc(C23CC4CC(CC(C4)C2)C3)cs1)NCCO` was 15.2%; that for `C/C(=N\OCc1ccccc1C#N)c1cc2ccccc2o1` was 6.54%; that for `Nc1ccn([C@H]2CC[C@@H](CO)O2)c(=O)n1` was 18%.

Turning to `CN(CCc1cnn(C)c1)Cc1cn[nH]c1-c1ccc(-c2ccccc2)cc1`, the “hERG current change (%, negative = inhibition) at 1uM” value is on record as -21.1%. The result for `CCOC(=O)c1c(C)c(C(=O)NC(C)COC)c(C)n1C` (stereo not drawn) reads 18.9%; that for `CC1CCCC(C)N1C(=C(Cl)Cl)C(=C1SCCS1)[N+](=O)[O-]` (stereo not drawn), 14.9%; that for `COc1ccc(CNC(=O)CCN2C(=O)c3ccccc3S2(=O)=O)cc1`, -3.38%.

Regarding `Nc1nonc1-n1nnc(C(=O)N/N=C/c2ccncc2)c1-c1cccs1`, the “hERG current change (%, negative = inhibition) at 1uM” value was found to be 10.7%. The value for `Cc1ccc(C(=O)NNC(=O)C(NC(=O)c2cccc(C)c2)C(C)C)cc1` (stereo not drawn) was 5.75%; that for `COc1cc(C(=O)NCC(=O)NCC(c2ccco2)N2CCCCC2)cc(OC)c1OC` (stereo not drawn) was 8.27%; that for `O=C(CSc1nnnn1C1CC1)N1CCN(Cc2ccccc2F)CC1` was 9.38%. The value for `CCC(C)NC(=O)c1ccc(CNS(=O)(=O)c2ccc3c(c2)C(C)(C)C(=O)N3C)cc1` (stereo not drawn) was 12.1%; that for `O=C(NCc1ccccn1)Nc1cccc(Cl)c1` was 8.41%; that for `N#Cc1nc(COc2ccc(Cl)cc2)oc1NCc1ccc2c(c1)OCO2` was 12.7%. The result for `O=C(Nc1nc2ccccc2[nH]1)C1CCCO1` (stereo not drawn) reads 10.4%.

Consider `COc1ccc(CCN2C(=O)CC(Sc3ncccc3C(=O)O)C2=O)cc1OC` (stereo not drawn), for which the “hERG current change (%, negative = inhibition) at 1uM” value is given as 10.6%. The value for `CN(C(=O)CN1C(=O)/C(=C/c2ccc(F)cc2)SC1=S)C1CCS(=O)(=O)C1` (stereo not drawn) was -10%; that for `COc1ccc(N2CCN(S(=O)(=O)c3ccc4c(c3)NC(=O)CS4)CC2)cc1` was 20.2%; that for `CCOC(CNC(=O)C(=O)Nc1cc2c3c(c1)CC(=O)N3CCC2)OCC` was 14.9%. For the molecule `COc1ccc(OC)c(NC(=O)CSc2ccccc2)c1`, the “hERG current change (%, negative = inhibition) at 1uM” value turned out to be 12.5%. The result for `CCOc1ccc(NCc2cccn2-c2nnc(N3CCC(C(=O)NCCCN4CCCCC4C)CC3)s2)cc1` (stereo not drawn) reads 6.42%; that for `CC(NC(=O)COc1ccc(Br)cc1)C(=O)O` (stereo not drawn), 12.1%; that for `Fc1ccc2[nH]c3c(NCCN4CCOCC4)ncnc3c2c1`, 8.84%.

As for `O=C(CSc1nccn1-c1ccc(F)cc1)Nc1ccc2c(c1)OCO2`, the “hERG current change (%, negative = inhibition) at 1uM” value was determined as 11.9%. The value for `Cc1cc(F)ccc1NC(=O)c1cnccn1` was 4.74%; that for `CC(C)(C)c1cc(Cl)ccc1OCCOCCN1CCCC1.O=C(O)C(=O)O` was 0.044%.

As for `CC(C)Nc1nnc(SCC(=O)N2CCN(C(=O)c3ccco3)CC2)s1`, the “hERG current change (%, negative = inhibition) at 1uM” value is 11.6%.

Regarding `CCN(CC)S(=O)(=O)c1ccc(C(=O)NCc2n[nH]c(=S)n2-c2ccc(Cl)c(Cl)c2)cc1`, the “hERG current change (%, negative = inhibition) at 1uM” value is reported as 15.4%.

As for `CC1(C)Cc2c(cnn2-c2ccccc2)C(NC(=O)c2ccc[n+]([O-])c2)C1` (stereo not drawn), the “hERG current change (%, negative = inhibition) at 1uM” value is 8.68%. The result for `COc1ccc(C2CC(c3cccs3)=NN2C(=O)CCl)cc1OC` (stereo not drawn) reads 6.62%; that for `O=C(NC(=S)Nc1ccc(CN2CCOCC2)cc1)c1ccc2c(c1)OCCO2`, 2.11%; that for `O=c1cc(N2CCCCCC2)[nH]c(=O)n1-c1ccccc1Cl`, 10%. The result for `Oc1ccc(/C=N/Nc2ccc(C(F)(F)F)cn2)cc1` reads 7.84%; that for `CCOC(=O)C1(Cc2ccccc2C)CCCN(Cc2ccc(NC(C)=O)cc2)C1` (stereo not drawn), 10.6%; that for `N#Cc1cc(-c2ccccc2)cnc1Sc1ccccc1`, 10.5%.

As for `CCN(CC)S(=O)(=O)c1ccc(C(=O)N2CCN(C(=O)c3ccco3)CC2)cc1`, the “hERG current change (%, negative = inhibition) at 1uM” value is recorded as -0.0165%. The result for `Cc1ccc(-n2nnnc2SCC(=O)c2c(N)n(C3CC3)c(=O)[nH]c2=O)cc1` reads 7.45%; that for `CCOc1ccc(NC(=O)CN2C(=O)S/C(=C/c3cccn3C)C2=O)cc1`, 15.1%; that for `CN(c1ccc(C(=O)NCCSC(C)(C)C)cc1)S(=O)(=O)c1ccccc1`, 3.6%.

Take `Cc1ccc(S(=O)(=O)CCC(=O)OCC(=O)N2CCc3ccccc32)cc1`: the “hERG current change (%, negative = inhibition) at 1uM” value is 4.71%. The result for `CCNC(=O)/C(=C/c1cccc([N+](=O)[O-])c1)NC(=O)c1ccc(C)cc1` reads -17.3%.

As to `COc1cc(C2C(C(=O)c3ccc(C)o3)=C(O)C(=O)N2CCc2ccccc2)ccc1O` (stereo not drawn), the “hERG current change (%, negative = inhibition) at 1uM” value stood at 4.12%.

In the case of `Cc1ccnc(NC(=O)C2CC(=O)N(Cc3ccccc3)C2)c1` (stereo not drawn), the “hERG current change (%, negative = inhibition) at 1uM” value worked out at 9.18%. The value for `CCn1c(SCC(=O)N/N=C/c2cc(OC)c(OC)c(OC)c2)nc2ccccc21` was 13.8%; that for `COc1ccccc1NC(=O)NC1(C(=O)N2CCOCC2)CCCCC1` was 14.5%. The value for `COc1cccc(NC(=O)CN(C)C(=O)Cc2n[nH]c(=O)c3ccccc23)c1` was 7.58%; that for `O=C1c2ccccc2C(O)(Cc2ccccc2)N1C1CCCCC1` (stereo not drawn) was 12%; that for `CCOC(=O)c1cn(-c2c(C)n(C)n(-c3ccccc3)c2=O)c2c(F)c(F)c(F)cc2c1=O` was 8.38%. The result for `CCOc1ccccc1CN1CCN(C/C=C/c2ccc(OC)cc2)CC1CCO` (stereo not drawn) reads -13.6%. In the case of `Fc1cccc(NCCc2c[nH]c3ccccc23)n1`, the “hERG current change (%, negative = inhibition) at 1uM” value was 16.5%. Take `CCCn1c(Oc2ccccc2)nc2c1c(=O)n(C)c(=O)n2C`: the “hERG current change (%, negative = inhibition) at 1uM” value is 10.7%.

With `COc1cc2c3nnc(-c4ccc(F)cc4)c-3cn(Cc3cccc(F)c3)c2cc1OC`, the “hERG current change (%, negative = inhibition) at 1uM” value was 19.1%. The value for `Cc1ccc(S(=O)(=O)CCc2nnc(NC(=O)COc3cccc(C)c3)s2)cc1` was 11.3%; that for `CCCCN(C)CCCNC(=O)Cn1c(=O)sc2ccccc21` was 1.42%; that for `CCOC(=O)c1ccccc1NCN1C(=O)CSC1=O` was 15.9%. `O=S(=O)(NCCCc1ccccc1)c1ccc(Cl)cc1`: the “hERG current change (%, negative = inhibition) at 1uM” value is reported as -2.28%.

For the molecule `CCCn1c(SCC(=O)Nc2ccc(Cl)cn2)nnc1C1CC1`, the “hERG current change (%, negative = inhibition) at 1uM” value came to 16.9%. The result for `CCOC(=O)c1c(NC(=O)COC(=O)CNC(=O)c2ccco2)sc(C(C)=O)c1C` reads 10.2%; that for `CCC(C)NS(=O)(=O)c1ccc(OCC(=O)NCC2CCCO2)cc1` (stereo not drawn), 0.206%. The value for `O=c1oc(/C=C/c2ccccc2)nc2sc3c(c12)CCC3` was 7.83%.

Turning to `CCN1CCN(c2nc(Nc3cccc(F)c3)nc(N)c2[N+](=O)[O-])CC1`, the “hERG current change (%, negative = inhibition) at 1uM” value is -16.5%. The result for `CCCN1C(=O)c2cccc3c(N4CCCCC4)ccc(c23)C1=O` reads 2.89%. In the case of `O=C(COc1ccccc1)NNC(=O)c1cccs1`, the “hERG current change (%, negative = inhibition) at 1uM” value was determined as 22.5%. In the case of `COc1ccc(N2C(=O)CC(N3CCCC4CCCCC43)C2=O)cc1` (stereo not drawn), the “hERG current change (%, negative = inhibition) at 1uM” value is 9.52%. The result for `COC(=O)C1=CN(Cc2ccc(OC)c(OC)c2)C=C(C(=O)OC)C1c1cccc(O)c1` reads 8.46%; that for `CN(CCOc1ccccc1)C(=O)CCc1nc2sc3c(c2c(=O)[nH]1)CCCC3`, 18.1%. In the case of `O=C(NC1=NCCS1)C1CC(=O)N(c2ccc(F)cc2)C1` (stereo not drawn), the “hERG current change (%, negative = inhibition) at 1uM” value was 2.82%. The result for `Cc1ccc(-n2nc3c(c2NC(=O)c2ccc4c(c2)OCO4)CS(=O)(=O)C3)cc1` reads 19.4%. The value for `COc1ccc(NC(=O)CSc2ncnc3c2cnn3Cc2ccccc2)cc1OC` was 20%; that for `COc1ccccc1Cn1c(CO)nc2ccccc21` was 11.3%. The result for `COc1ccc(C(C(=O)NC(C)(C)C)N(C(=O)CNC(=O)c2cccs2)c2ccc(C(C)C)cc2)cc1OC` (stereo not drawn) reads 11.2%.

For `O=C(/C=C/c1ccc(F)cc1)NC(=S)Nc1ccccc1C(=O)NC1CCCCC1`, the “hERG current change (%, negative = inhibition) at 1uM” value worked out at 11%. The result for `Cc1ccc(Cl)cc1N1CCN(C(=O)CCS(=O)(=O)c2ccc3c(c2)NC(=O)CO3)CC1` reads 13.8%; that for `CCOc1cc(CN2CCCC(N3CCc4ccccc4C3)C2)ccc1O` (stereo not drawn), 8.74%; that for `Cc1ccc(-c2c3c(=O)n(C)c(=O)n(C)c3cn2-c2ccccc2O)cc1`, 4.06%.

Take `O=c1c2c3nc4ccccc4nc3n(CC3CCCO3)c2ncn1CCc1ccccc1` (stereo not drawn): the “hERG current change (%, negative = inhibition) at 1uM” value was 7.54%.

These data come from PMC4336329 (PLoS ONE, 2015).
